# According to PubChem BioAssay AID686978 (National Center for Advancing Translational Sciences (NCATS), 2013):
# Screen size: about 420,000 compounds; about 64,000 (15%) were called active. Inconclusive means that the source gave no clear call. Such entries were picked first, then a sample of the others. The call rests on the fitted dose curve; in most records, active means well fitted inhibition curve with a large enough effect; inconclusive means small, poorly fitted or top-dose-only effect; inactive means flat fitted curve, though single readings scatter. Potencies of inconclusive entries are left out as doubtful fits.
# Assay: qHTS for Inhibitors of human tyrosyl-DNA phosphodiesterase 1 (TDP1): qHTS in cells in absence of CPT; further: nearly all actives have a fitted effect of over 55% in size
# Conditions: DT40 Tdp1-/- hTDP1 cells, no CPT, ATP luminescence, 48 h; activity change, negative = growth inhibition: at 46.2 µM (top of the series) unless noted
# Outline: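 Stably hTDP1-transfected Tdp1-null chicken DT40 cells were treated with library compounds minus camptothecin and grown for at least 48 hr at 37 °C, after which cellular ATP was quantified by luminescence.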
# On the % scale 0 is the no-effect control and ±100 the full control effect; potency means the concentration at half of the fitted maximal effect; tags describe the fitted curve by direction and shape.
SMILES,Potency,"activity change, negative = growth inhibition"
Cc1ccsc1-c1nc(CSCC(=O)NCc2ccc3c(c2)OCO3)c(C)o1,"inconclusive [inhibitor, single point]",
CCCCOc1ccc(Cc2c(O)nc(SC)[nH]c2=O)cc1,inactive,
Clc1ncnc2scc(-c3ccccc3)c12,"inconclusive [inhibitor, full curve, poor fit]",
Cc1cc(C)c2nc(SCCc3ccccc3)nc(C)c2c1,"inconclusive [inhibitor, partial curve, poor fit]",
Cc1ccc2ccccc2c1NC(=O)CNCc1ccccc1,"inconclusive [inhibitor, single point]",
CCCCCCSc1nnc2[nH]c(=O)cc(N)n12,,inconclusive: -49.8% [inhibitor]
CCCCOC(=O)c1ccc(S(N)(=O)=O)o1,"inconclusive [inhibitor, single point]",
CCN1C(=O)[C@@H]2[C@@H](c3ccc(-c4ccc(Cl)c(Cl)c4)cc3)N3CCC[C@@]3(C(=O)OC)[C@@H]2C1=O,active: 7.31 µM,
CCOCCCN(C)C1CCN(C(=O)c2oc3ccccc3c2NC(=O)COc2ccc(F)cc2)CC1,"inconclusive [inhibitor, single point]",
O=C(NC1CCC(O)CC1)c1cc(-c2ccc(Cl)cc2)nc2ccccc12 (centres undefined),"inconclusive [inhibitor, full curve]",
CC(=O)NC(=S)Nc1ccccc1C(=O)Nc1ccccc1,"inconclusive [inhibitor, single point]",
CC(C)(C)OC(=O)N1CCc2onc(-c3ccc(Br)cc3)c2C1=O,"inconclusive [inhibitor, partial curve]",
COc1ccc(C(=O)NN2CCOCC2)cc1,inactive,
O=S1(=O)c2ccccc2N(Cc2ccc(F)cc2)c2ccccc21,"inconclusive [inhibitor, single point]",
COc1cc(OCc2ccccc2)c(OC)c(OCc2ccccc2)c1,"inconclusive [inhibitor, single point]",
Cc1cccc2cc(C(c3nnnn3C(C)(C)C)N(Cc3ccco3)CC3CCCO3)c(=O)[nH]c12 (centres undefined),"inconclusive [inhibitor, single point]",
CC(C(=O)NC1(C#N)CCCCC1)N(C)CC(=O)Nc1ccc(Cl)c(Cl)c1 (centres undefined),active: 18.4 µM,
CCCn1cnc2cc(NCc3cccs3)ccc21,inactive,
Cc1cc(-c2ccc(C)c(S(=O)(=O)NCCc3ccco3)c2)on1,,inconclusive: -32.6% [inhibitor]
O=[N+]([O-])c1cc(S(=O)(=O)NCCc2ccccn2)ccc1Cl,"inconclusive [inhibitor, partial curve]",
CC(=O)Nc1ccc(S(=O)(=O)NCCS(=O)(=O)N2CCN(c3ccccc3)CC2)cc1,inactive,
CCCSCCCNC(=O)c1sc2nc(C)cc(C)c2c1-n1cccc1,"inconclusive [inhibitor, single point]",

SMILES,Potency,"activity change, negative = growth inhibition"
CCSc1nnc(NC(=O)CCCOc2ccc(C)cc2)s1,"inconclusive [inhibitor, full curve, poor fit]",
CC1(C(=O)Nc2ccc3c(c2)OCCO3)CCC(=O)N1C1CCN(Cc2ccccc2)CC1 (centres undefined),inactive,
CSCCCNC(=S)Nc1ccc(N2CCOCC2)cc1,inactive,
Cc1ccc(-c2nc(CS(=O)(=O)CC(=O)N3CCN(c4ccccc4)CC3)c(C)o2)cc1,active: 23.1 µM,
CC1(C)Cc2nc(NCCCO)c(C#N)cc2CO1,inactive,
CCCCCCNC(=O)CC(c1ccccc1)c1cc(Br)ccc1O (centres undefined),active: 25.9 µM,
Cc1cccc(NC(=O)CSc2nc3ccc(NC(=O)CCc4ccccc4)cc3s2)c1,"inconclusive [inhibitor, partial curve, poor fit]",
COc1ccc(CNC(=O)c2cc3c(=O)n(Cc4ccc(OC)cc4)ccc3nc2C)cc1,"inconclusive [inhibitor, single point]",
CCOc1ccc(C(=O)NC(=S)Nc2ccc(NC(=O)c3ccco3)c(C)c2)cc1[N+](=O)[O-],inactive,
COC1CCCN(C(=O)c2ccc(OC3CCN(S(=O)(=O)N(C)C)CC3)cc2)C1 (centres undefined),"inconclusive [inhibitor, single point]",
COC(=O)C1=C(N)c2c(F)cccc2C1(C#N)c1ccc(F)cc1 (centres undefined),"inconclusive [inhibitor, partial curve, poor fit]",
Cc1cc(C)cc(NC(=S)N(CCN2CCCCC2)Cc2ccco2)c1,"inconclusive [inhibitor, single point]",
COC(=O)C1(C(C[N+](=O)[O-])c2ccc(C)cc2)C(=O)NCC1c1ccco1 (centres undefined),"inconclusive [inhibitor, single point]",
CC(NC(=S)Nc1ccccc1Cl)C(c1ccccc1)N1CCOCC1 (centres undefined),"inconclusive [inhibitor, single point]",
O=C(NCc1ccc(F)cc1)c1cc(C2CCCCN2S(=O)(=O)Cc2ccccc2)on1 (centres undefined),"inconclusive [inhibitor, single point]",
Cc1ccc(-n2nc(C)c3c(C)c(CCC(=O)NCc4ccc(Cl)cc4)c(C)nc32)cc1,"inconclusive [inhibitor, partial curve]",
COc1ccc(-c2nc3ccccc3s2)cc1NC(=O)c1cccc(F)c1,"inconclusive [inhibitor, single point]",
Cc1ccsc1C(=O)OCc1cc(=O)n2ccsc2n1,inactive,
COc1cccc(CNC(=O)c2ccc3nc(CCc4ccccc4)oc3c2)c1OC,"inconclusive [inhibitor, single point]",
Cn1cccc1/C=N/NC(=O)c1cc2ccccc2cc1O,active: 20.6 µM,
CCC(=O)NC(c1cccs1)c1cc([N+](=O)[O-])c2cccnc2c1O (centres undefined),"inconclusive [inhibitor, single point]",
COc1ccc(CC(=O)Nc2ccc(-c3ccc4nnc(C)n4n3)cc2)cc1OC,"inconclusive [inhibitor, single point]",
